Whole data set: some 33,000 sequences, median “E-score (-0.5 to 0.5)” near -0.036, cut for the highest 2% near 0.37. The list shows a part of the results.
What follows are sequences tested against T1, Yer064c (UniProt P40041) (assay: PBM E-score (8-mer binding enrichment) (E-score (-0.5 to 0.5)); higher = stronger / more preferred TF binding; most listed sequences are background and not binding sites). Settings: protein concentration: 200 nM; construct: GST-full length.
T1 sequence: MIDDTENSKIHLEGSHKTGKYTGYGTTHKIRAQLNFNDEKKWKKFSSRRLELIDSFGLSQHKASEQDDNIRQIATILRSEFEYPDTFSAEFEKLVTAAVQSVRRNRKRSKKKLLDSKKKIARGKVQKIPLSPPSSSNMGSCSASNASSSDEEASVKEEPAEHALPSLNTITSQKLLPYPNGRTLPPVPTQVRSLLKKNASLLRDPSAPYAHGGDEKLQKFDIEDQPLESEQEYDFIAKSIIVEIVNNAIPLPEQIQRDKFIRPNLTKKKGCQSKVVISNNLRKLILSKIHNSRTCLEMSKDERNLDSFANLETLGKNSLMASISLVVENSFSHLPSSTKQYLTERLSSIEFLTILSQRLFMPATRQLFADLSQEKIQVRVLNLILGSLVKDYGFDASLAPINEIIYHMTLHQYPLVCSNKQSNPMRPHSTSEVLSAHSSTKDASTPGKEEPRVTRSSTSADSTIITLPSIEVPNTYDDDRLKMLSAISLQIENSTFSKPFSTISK
Method: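 Universal 'all 10-mer' protein binding microarrays (Agilent AMADID 015681) probed with GST-tagged S. cerevisiae TFs (full-length or DBD) made by in vitro transcription/translation (PURExpress), about 100-200 nM. Bound TF was detected with fluorescent anti-GST. Each ungapped 8-mer (which stands for itself and its reverse complement) is scored by the PBM enrichment score (E-score), a modified Wilcoxon-Mann-Whitney statistic from -0.5 to +0.5, computed with the Universal PBM Analysis Suite. Scale: above 0.35 generally sequence-specific binding.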

Sequence	PBM E-score
TACTTTCA	0.0717
ACGAAGGG	-0.192
CTTACATA	0.00734
CAATCGTC	0.0944
AACCTATC	-0.346
AAAGCTCT	-0.298
AGCGGAGG	-0.24
CTTGGCTC	-0.0769
AGCTTGAC	0.112
CCCCCTTA	-0.305
GAATCACA	0.439
AATCTACA	0.101
AGTGACAC	-0.0262
CCCTACTC	-0.144
CGCTTAAC	-0.025
CAGACGAG	-0.0357
CCGCGCAG	-0.036
CCGTATCG	-0.155
GGGCCACA	-0.262
CCGTCGTC	-0.353
ATTCGCGC	0.0628
ATTGAATG	0.167
GACCGATC	-0.326
GTGTTGAA	0.0472
AAGGTCCA	-0.248

Sequence	PBM E-score
GGGCCCCA	-0.187
CATAGGTC	0.0874
AGAAGCCC	-0.218
CGCAGACG	0.0321
CAAGTACG	-0.0743
AGTCCTCA	0.324
ATCCTGCA	0.0162
GGTGCTCA	-0.193
CGGACCGC	-0.209
AATCTAGA	0.17
AGAAGCAC	-0.198
ATCTAACG	0.0572
AGTAGGAC	-0.0515
ACTGATAG	0.149
ACGTTAAG	-0.0557
TGCCACCA	-0.299
CGGATACC	-0.124
ACCTAAGC	0.0252
CGTTCTCC	-0.256
AGATCAGA	0.0561
ACGTCCAC	-0.183
AGCCACCC	0.0937
ACCGAAAT	-0.0482
AAAGGTAT	-0.0776
AGCAGTCG	0.065

Sequence	PBM E-score
GAACCAAA	-0.0805
AGCATAAA	-0.0756
GCTGCGCC	-0.317
CAACTAAG	0.122
CAGCTGCA	-0.216
CAAGTCTC	0.00338
AGCCCTTC	-0.303
TTACGTAA	0.129
ACAAACAG	-0.0373
TCTGGGCA	-0.189
AGCCGACT	0.241
CCCGGCCA	-0.141
CGCGCCGA	-0.141
TGAAGACA	0.0738
GATAAGAA	-0.0111
AGCCGTAC	-0.104
CGAGCATC	-0.205
AGAACGAA	-0.113
CATATTTA	0.236
GCCCTAGC	-0.089
AAGATAAT	0.133
GCGGTCAA	-0.0967
CCGCGGTC	-0.129
TTTGCAAA	0.12
GTCTAGCA	0.0736

Sequence	PBM E-score
TCACGTCA	0.0167
GAAGTGCA	-0.12
AGTGGGGC	-0.134
TAAAGTGA	0.185
ACTCCAAG	0.0843
ACGGTAAA	-0.283
GAGTTGCC	-0.149
ACCCTTGA	0.0578
ACAATGCG	-0.0538
ACAGTGTA	0.0814
CATCTCGC	0.0122
AGCTAGTC	0.324
AACTGTCA	-0.129
ACCTGCAG	-0.108
AGTTGCGA	0.0822
CCCTCGAG	-0.0787
AAGACGTC	-0.213
CCTATGAG	0.219
AAAAACGC	-0.0321
AGAGCGAC	0.0954
AGATGACG	-0.0495
ATACTTTC	-0.0129
GCCACGAA	0.0416
ACTCTGTC	0.118
CTTGATAA	-0.0143

Sequence	PBM E-score
GTCAGCAC	0.239
CGCTCGCA	-0.0631
AAAACAGA	0.0177
ATATGTCC	-0.223
ACCCCCAT	-0.325
CCGAACCC	-0.262
CGTGGGAG	-0.15
CCGCACTA	-0.177
CTTCCTAA	-0.0225
TAATCCAA	0.178
CCCGAGTA	0.0478
CCCTCTCA	-0.161
ACTCGAAG	0.149
CCCCAAAC	-0.273
AACGGACC	-0.268
ACCGAGAG	0.054
GCCGCTTA	-0.0051
GGGCGTGA	0.0813
CCGAAGAG	0.0039
GTCGACAA	-0.0508
TATACAAA	0.0856
ACAAGTTC	-0.161
CCAATGAG	-0.0367
AGCTGTCG	-0.196
AATTACGC	-0.116

Sequence	PBM E-score
CTGACGGC	-0.208
ATCACAGA	0.234
AGGCAAAA	-0.143
AGCCAGAT	-0.054
GGAACTAA	-0.0808
CGATAGTA	0.032
CTACATGA	0.298
CTGTTTGC	0.0369
AGGCCACG	-0.0254
TAGCGCGA	0.127
CGATTGAA	0.152
AGATAGCA	-0.0539
AGCGTTAA	-0.0387
ACGTGTTA	-0.144
AGAAGGAA	-0.276
ATTGTTCA	0.00489
CTAGGCGA	-0.0827
GACTTTAC	0.234
ACGGGAAC	-0.176
ACTGAGTG	0.161
GAAGTGTC	0.105
AGGTTTCA	-0.0119
ACTAAGCA	0.246
CCTGCTGC	-0.138
CATTCTAA	0.164

Sequence	PBM E-score
AATCACTC	0.385
ATCAGAGA	0.207
ACGCACCA	-0.24
TACTATCA	0.0134
GGGGCAGA	-0.21
GTTTCGCA	-0.0949
CATATACC	-0.00252
ACCCGCGT	-0.129
AAGCTGCA	-0.157
AAGGTGAG	0.121
AAGCCTCT	-0.154
CAAATTGA	-0.0396
TACGAACA	0.0731
CAACCTCA	-0.202
GCCCTTGA	-0.0137
CTACTGCC	-0.323
CGGAAGAA	-0.0182
CCCGCAAC	-0.00788
TAGATGAA	0.00973
CGGCAGGA	-0.239
GAGGCTAA	-0.0602
AAAAACTG	-0.174
ACGCTAGT	0.0244
CGGTGGCC	-0.25
ATCTATTG	0.107

Sequence	PBM E-score
TACGACTA	0.415
GCCACTTA	0.0189
GAGGTGCC	-0.321
GGGAATGA	0.0959
AGACGCGG	-0.234
CCCCACTA	-0.141
CAGCATAC	-0.21
GCGCGACA	-0.0346
GCACCAAC	-0.133
CAGAGCTC	-0.051
ACGGTTCA	-0.0012
GAGTTACC	0.12
GAACCGTC	-0.209
AGGCACAA	-0.111
AGAGATCT	0.01
ACGGGCTC	-0.206
ACAACGCG	-0.216
GAGCTCGC	-0.155
AGGGAACC	-0.171
CGATCCTA	-0.245
GAGTGTAA	0.114
CCAGTATC	-0.244
AAGGAAAA	-0.126
AAGGCGGC	-0.229
AGGGCAAT	-0.154

Sequence	PBM E-score
AGGGTAAA	0.0915
CCAATCAA	0.0424
AACTTAAT	0.122
ACATAGTA	0.0874
AACATATG	-0.0652
CCTTGAGA	0.175
CTATGCGA	0.0225
ATAATCAT	0.45
CATGACCA	0.0578
ACCAGATC	-0.209
GGCTAGCA	-0.076
CCCGTGCG	-0.119
ATGACGCC	-0.208
ACCTACCT	0.0781
ATCGAACG	-0.225
AAATATGA	0.276
ACATCTGC	-0.176
CTGAGGAC	0.0663
GGTGTCGA	0.046
GCGCAGTA	-0.128
AGAACAGG	-0.184
CATAATCC	-0.0164
TTGTTAAA	0.0448
ATATCTTC	0.0239
GAATGGGA	-0.00706

Sequence	PBM E-score
CTTGCCCC	-0.361
GATCGTCC	-0.0844
ACTACGTC	0.0287
CCGAATTA	-0.137
CACGGTTC	0.0566
AAGCACCC	-0.225
CTTTAAAA	0.174
AATCTGAG	0.108
ACGGTCTG	-0.166
CAATACGA	0.0923
GAGTATAC	0.11
GTGCCCAA	-0.0902
GCCTTGCC	-0.103
CAGCTACA	-0.165
GACTAAGC	0.42
CGGTTAGC	-0.0499
GGGACAAC	-0.202
CGTTAATA	0.0159
ATTAAGTA	0.181
GACTGTCC	0.169
CAAGCTTA	0.0225
GCCGGCCC	-0.321
GGGAAAAC	-0.345
CAATCAGG	0.218
TATGACAA	-0.019

Sequence	PBM E-score
ATTGCAAA	0.0468
ACCATTCG	0.052
CGTAAGTC	0.266
ATTTGTTG	-0.0426
AATGGAGA	-0.0502
AGGCAAAG	-0.157
ACTAGTCT	0.345
CGGTAGGA	-0.0115
GCCGCCGA	-0.114
ATTCACGA	0.212
GACCCTGC	-0.262
AGGGATAA	0.093
TACAAGTA	-0.00163
GCACCGGC	-0.218
AGGGCGTA	-0.0746
ATCCTACG	-0.0401
CGTGCCGA	-0.237
ATAATCCA	0.0423
ATAGGGAG	-0.0477
CCCACTTC	-0.146
ATATCCAG	-0.135
ATCTACAT	0.16
GGGTACGA	0.028
TAAACATA	0.164
AAACATAA	0.0547

Sequence	PBM E-score
CCGGTCGA	-0.237
GATGTTCA	-0.0838
ACAAGTTG	-0.0935
GACGGTCC	-0.324
CAACGGGC	-0.0805
CCGGAGCG	-0.242
AACAAACA	0.00034
GCCAACGA	-0.245
AAATTTAG	0.167
CCTGCGTC	-0.213
CTGTTATA	-0.0108
AAGCTATT	-0.16
ACGACGAG	0.0377
GATTGTAA	0.159
CAACTTAG	0.0981
AAACGGAG	-0.185
CCGAAGTC	0.251
CTACGCCA	0.0287
GCACACCC	-0.0608
ACTACGCT	0.125
TCAGGGCA	-0.124
TGCATCCA	-0.0163
TCTGTTAA	0.0454
AGCACGCA	-0.129
ATTAGAAC	0.052

Sequence	PBM E-score
ACATGAGA	0.284
AAACCCCT	-0.219
ACGGGTTG	-0.128
GGTAAGCA	-0.159
ATGGGCGC	-0.191
GTCCCCAC	-0.0661
GAGTGGTA	0.0154
ATGTCAAT	-0.0622
AGCCTGCG	-0.212
AATCGAAC	-0.137
ATCTTCGG	0.0804
GTTACAAC	0.0394
AAACTAAT	0.243
ATTTGGGA	0.0486
ACGTGCCT	-0.11
ATCCCATC	-0.167
CTTGGGTA	0.0795
ATCGGCGG	-0.121
GACTAGAA	0.293
ACATCAGC	-0.0863
CGGACCCC	-0.22
CTTCGAAC	0.0403
TATAGGAA	0.084
GACTCACC	0.478
GCCACTCA	0.116

Sequence	PBM E-score
CAGTTGTC	0.00626
GTATCAGA	0.0243
GGACTGCA	0.234
AGTACCCC	-0.0756
AGGATGGA	-0.0937
ATCGACAA	-0.00382
ATTGCAAT	0.093
AGCATGTC	-0.107
ACGTTCAA	-0.11
GGATAACA	-0.0227
ATATTAGG	0.0316
GATTCGGC	-0.0687
ATCAAAGA	0.193
CCCTAGAG	-0.141
GCCTATCC	-0.207
GTAGCTCA	0.067
TAACGACA	-0.0322
AAATACAT	-0.115
ACAACTGC	-0.0478

Source: the supplement of paper PMC3334620
